Measured values taken from patent US20140154251A1, “ANTI C-MET ANTIBODY AND USES THEREOF” (Samsung Electronics Co., Ltd., priority 2011, published 2014).
Residue numbers refer to the chain shown, from its start. Values belong to the molecule of their own block, whether it stands above or below them.

Columns and labels:
U87MG brain cancer cells = experiment: U87MG brain cancer mouse xenograft model; assay type: in vivo, BALB/C nude mice; conditions: 0.2 mg/kg-10 mg/kg, every 10 days, 3 doses
Procedure: (§1) In order to identify anti-cancer effects of the 4 types of antibodies having improved affinities, as prepared in Example 5, a decrease in the size of tumor cells in a brain cancer or gastric cancer mouse xenograft model transplanted with U87MG brain cancer cells (Korean Cell Line Bank) or MKN45 gastric cancer cells (Japanese Cancer Research Bank, JCRB, Tokyo, Japan) was observed when the antibodies having improved affinities were administered thereto in vivo.
(§2) For MKN45 model (FIG. 6A), 5×10^6 MKN45 cells (100 uL) were administered via subcutaneous injection to 6 week-old male BALB/C nude mice (SLAC Laboratories, Shanghai, China). For U87MG model (FIG. 6B), 2.5×10^6 U87MG cells were administered. One wee after the tumor inoculation, the mice were randomized into Vehicle (PBS) or huAbF46-H4-A1 treatment groups at a various doses (0.2 mg/kg-10 mg/kg). Each group consisted of 15 mice. For MKN45 model, each treatment was given once a week via intravenous route, for total of 4 doses. For U87MG model, the treatment was given every 10 days for total of 3 doses. […]

Akt = Akt phosphorylation in Caki-1 cells (phospho-AKT1 Ser473 ELISA); assay type: cell-based; conditions: 5 ug/ml, 30 minutes; for degree of Akt phosphorylation: serum free, 5D5 = 100%
Procedure: (§3) To compare agonism of the 4 types of antibodies having improved affinities, as prepared in Example 5, Caki-1 cells (Korean Cell Line Bank) were used to confirm the degree of Akt phosphorylation. Mouse IgG was used as a negative control, and antibody 5D5 (a known agonist) was used as a positive control.
(§4) 2×10^5 cells/ml of Caki-1 cells were introduced to a 96-well plate, and after 24 hours, each of 5 ug/ml of the antibodies was treated in serum free medium for 30 minutes. Lysis of the cells treated with the antibodies was performed and the degree of Akt phosphorylation was measured using a PathScan phospho-AKT1 (Ser473) chemiluminescent Sandwich ELISA kit (Cell Signaling, cat. no #7134S).
as §3, with “3” for “4”, “11,” for “5,”, “and a 5D5” for “and”, “antibody” for “antibody 5D5”
as §4, with “with” for “with the”, “and a” for “and the”, “phosphorylation inhibition” for “phosphorylation”, “(Ser473) a” for “(Ser473)”

[1] = tested on: MKN45 gastric cancer cells; experiment: In vitro cell proliferation analysis (CellTiter-Glo); assay type: cell-based, human; conditions: 0.008 ug/ml, 72 hours
Procedure: In order to identify anti-cancer effects of the 4 types of antibodies having improved affinities, as prepared in Example 5, in vitro cell proliferation analysis was performed using MKN45 gastric cancer cells on which c-Met is expressed (Japanese Cancer Research Bank, JCRB, Tokyo, Japan).
(§5) 1×10^4 MKN45 cells suspended in 50 ul of 5% (w/v) FBS/DMEM culture medium were introduced to each well of a 96-well plate. Then, the cells were either not treated or were treated with 50 ul of the 4 types of antibodies at a concentration of 0.008, 0.04, 0.2, or 1 ug/ml. After incubating for 72 hours, the number of cells was quantified by using a CellTiter-Glo Luminescent Cell Viability Assay Kit (Promega, G7570) with a leuminometer (PerkinElmer, 2104 Multilabel reader).
In order to identify anti-cancer effects of the three types of antibodies prepared in Example 11, in vitro cell proliferation analysis was performed using MKN45 gastric cancer cells having c-Met on the cell membrane (Japanese Cancer Research Bank, JCRB, Tokyo, Japan).
as §5, with “the 3” for “the 4”

c-Met [2] = target: T1, c-Met (Homo sapiens, UniProt P08581); experiment: Degree of degradation of c-Met in MKN45 cells (total c-Met ELISA); assay type: cell-based; parameters: MKN45 gastric cancer cells on which c-Met is expressed; endogenous in cells; host or cells: MKN45 gastric cancer cells (JCRB); conditions: 5 ug/ml, 24 hours
Procedure: In order to identify anti-cancer effects of the 4 types of antibodies having improved affinities, as prepared in Example 5, the degree of degradation of c-Met bound to the antibodies was evaluated. A relative total amount of c-Met was obtained by measuring the change in the total amount of c-Met after the antibody binds to c-Met to degrade c-Met via internalization, and thus the efficacy of the antibody was evaluated.
(§6) MKN45 cells (2×10^5 cells/ml) and each of the antibodies (5 ug/ml) were simultaneously introduced to a 96-well plate and incubated for 24 hours. Then, lysis of the cells treated with antibodies was performed and the change in the total amount of c-Met was measured using a Human total HGF R/c-Met ELISA KIT (R&D systems, DYC358) and analyzed.
as §6, with “In order to identify anti-cancer effects of the 3 types of antibodies having improved affinities, as prepared in Example 11, the degree of degradation of c-Met bound to the antibody was evaluated. MKN45” for “MKN45”, “and a” for “and the”, “change of” for “change in”

[3] = tested on: MKN45 gastric cancer cells; experiment: MKN45 gastric cancer mouse xenograft model; assay type: in vivo, BALB/C nude mice; conditions: 0.2 mg/kg-10 mg/kg, once a week intravenous, 4 doses
Procedure: as §1, §2

c-Met [4] = target: T1, c-Met; experiment: Biacore binding affinity to c-Met antigen; conditions: antibody immobilized on CM5 chip; 0.39 nM to 100 nM human c-Met
Procedure: Affinities of the 4 types of antibodies against c-Met antigen prepared in Example 7 were measured by using a Biacore (GE healthcare). About 80 to 110 RU of each antibody was immobilized on a CM5 chip, 9 different concentrations ranging from 0.39 nM to 100 nM of human c-Met protein, as an antigen, were injected at a rate of 30 ul/min to obtain kon values and koff values as shown in Table 3. Then, KD values were calculated based thereon.

T1 sequence (P08581 25-1390): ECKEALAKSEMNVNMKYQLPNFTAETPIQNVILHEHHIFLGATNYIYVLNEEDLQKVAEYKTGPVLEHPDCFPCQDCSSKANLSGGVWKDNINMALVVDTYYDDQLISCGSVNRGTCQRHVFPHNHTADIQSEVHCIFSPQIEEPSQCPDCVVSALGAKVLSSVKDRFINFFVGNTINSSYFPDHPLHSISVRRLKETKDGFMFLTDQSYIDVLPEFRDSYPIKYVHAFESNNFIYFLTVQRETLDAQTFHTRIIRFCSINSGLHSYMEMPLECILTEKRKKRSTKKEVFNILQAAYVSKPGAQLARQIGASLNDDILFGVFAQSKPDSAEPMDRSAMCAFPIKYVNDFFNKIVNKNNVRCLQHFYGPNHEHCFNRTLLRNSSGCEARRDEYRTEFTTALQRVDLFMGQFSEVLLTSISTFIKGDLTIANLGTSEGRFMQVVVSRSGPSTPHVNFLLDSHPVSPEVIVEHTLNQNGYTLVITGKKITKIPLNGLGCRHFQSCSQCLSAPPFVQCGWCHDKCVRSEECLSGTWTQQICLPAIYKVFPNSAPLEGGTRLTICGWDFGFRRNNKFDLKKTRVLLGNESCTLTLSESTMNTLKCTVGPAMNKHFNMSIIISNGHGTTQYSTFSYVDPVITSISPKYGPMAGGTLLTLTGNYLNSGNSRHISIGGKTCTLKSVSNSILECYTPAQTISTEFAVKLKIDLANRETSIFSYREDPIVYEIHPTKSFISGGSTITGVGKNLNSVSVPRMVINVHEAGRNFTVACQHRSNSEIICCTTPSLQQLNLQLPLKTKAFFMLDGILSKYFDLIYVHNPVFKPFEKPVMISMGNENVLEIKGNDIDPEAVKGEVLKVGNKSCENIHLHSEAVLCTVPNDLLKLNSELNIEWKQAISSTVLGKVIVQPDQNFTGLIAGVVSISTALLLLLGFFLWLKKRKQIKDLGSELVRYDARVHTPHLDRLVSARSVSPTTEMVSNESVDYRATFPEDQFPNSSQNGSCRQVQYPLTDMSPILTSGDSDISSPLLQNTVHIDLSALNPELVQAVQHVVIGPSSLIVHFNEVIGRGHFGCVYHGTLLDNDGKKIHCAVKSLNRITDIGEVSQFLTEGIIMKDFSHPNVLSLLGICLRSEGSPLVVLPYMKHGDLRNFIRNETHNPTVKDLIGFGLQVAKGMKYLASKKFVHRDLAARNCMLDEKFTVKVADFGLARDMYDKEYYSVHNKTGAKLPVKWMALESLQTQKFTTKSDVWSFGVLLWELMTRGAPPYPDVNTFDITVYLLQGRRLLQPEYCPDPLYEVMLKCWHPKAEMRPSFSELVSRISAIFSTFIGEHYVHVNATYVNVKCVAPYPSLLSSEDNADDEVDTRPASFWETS

B1: huAbF46-H4-A1: affinity-matured huAbF46 IgG with L3-1-derived CDR-L3 (SEQ ID NO: 13), U6-HC7 hinge (antibody)
heavy: EVQLVESGGGLVQPGGSLRLSCAASGFTFTDYYMSWVRQAPGKGLEWLGFIRNKANGYTTEYSASVKGRFTISRDNSKNTLYLQMNSLRAEDTAVYYCARDNWFAYWGQGTLVTVSSASTKGPSVFPLAPSSKSTSGGTAALGCLVKDYFPEPVTVSWNSGALTSGVHTFPAVLQSSGLYSLSSVVTVPSSSLGTQTYICNVNHKPSNTKVDKKVEPKSCDCH[sequence of human IgG1 Fc omitted]
light: DIQMTQSPSSLSASVGDRVTITCKSSQSLLASGNQNNYLAWHQQKPGKAPKMLIIWASTRVSGVPSRFSGSGSGTDFTLTISSLQPEDFATYYCQQSYSRPYTFGQGTKVEIKRTVAAPSVFIFPPSDEQLKSGTASVVCLLNNFYPREAKVQWKVDNALQSGNSQESVTEQDSKDSTYSLSSTLTLSKADYEKHKVYACEVTHQGLSSPVTKSFNRGEC
tumor growth inhibiting effect (U87MG brain cancer cells): dose-dependent tumor growth inhibiting effects | degree of Akt phosphorylation as share of that of huAbF46 (Akt): about 49% | degree of Akt phosphorylation (Akt): 15.27% | relative cell viability [1]: 74% | increase of degree of degradation of c-Met compared to huAbF46 (c-Met [2]): about 37% | tumor growth inhibiting effect [3]: dose-dependent tumor growth inhibiting effects

B4: huAbF46-H4-A2: affinity-matured huAbF46 IgG with L3-2-derived CDR-L3 (SEQ ID NO: 14), U6-HC7 hinge (antibody)
heavy: B1 heavy
light: B1 light with Q95G, Y102L
degree of Akt phosphorylation as share of that of huAbF46 (Akt): about 49% | degree of Akt phosphorylation (Akt): 15.71% | koff (c-Met [4]): 0.000253 s⁻¹ | kon (c-Met [4]): 502000 M⁻¹ s⁻¹ | relative cell viability [1]: 73% | increase of degree of degradation of c-Met compared to huAbF46 (c-Met [2]): about 28%

Continued, in another order:

koff (c-Met [4]): 0.000143 s⁻¹ | kon (c-Met [4]): 419000 M⁻¹ s⁻¹ | increase of degree of degradation of c-Met compared to huAbF46 (c-Met [2]): about 28%
B2: huAbF46-H4-A3: affinity-matured huAbF46 IgG with L3-3-derived CDR-L3 (SEQ ID NO: 15), U6-HC7 hinge (antibody)
heavy: B1 heavy
light: B1 light with Q95A, R100H, Y102F, T103S
relative cell viability [1]: 66%

koff (c-Met [4]): 0.00024 s⁻¹ | kon (c-Met [4]): 572000 M⁻¹ s⁻¹ | increase of degree of degradation of c-Met compared to huAbF46 (c-Met [2]): about 28%
B3: huAbF46-H4-A5: affinity-matured huAbF46 IgG with L3-5-derived CDR-L3 (SEQ ID NO: 16), U6-HC7 hinge (antibody)
heavy: B1 heavy
light: B1 light with Y102F
relative cell viability [1]: 72%
